The other results are listed elsewhere or left out.
These sequences were tested on PfAP2-HC AP2 domain (GST-tagged) (assay: gcPBM binding intensity (ln(normalized median fluorescence intensity)); higher = stronger DNA binding).
Outline: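 For binding intensity, the highest Masliner-normalised natural-log median intensity across replicate spots of either probe orientation was taken. Protein bound to the array was stained with Alexa488 anti-GST antibody and scanned at 488 nm. The protein, GST-tagged P. falciparum DNA-binding domains from E. coli at about 25 μg on average, had been applied for 1 h to an Agilent 4 × 180k array of primer-extended double-stranded 36-bp intergenic genomic probes and negative controls.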

Row | Sequence | gcPBM binding intensity (ln)
1 | GAAAATTCATAAAAATGTACTTATTATATTATTTAT [XGTACX_site2169] | 9.54
2 | AAAGGTTTGCGTTGTGTGCACAAAATAAATATATAA | 10.1
3 | TTATGAATATTGATGTATAAAAAAATATATATGTTA [XGTACX_negctrl_site390] | 9.47
4 | GATATATAACTTTTAACACACAAAAAAAAAAAAAAT [CACACA_site7653] | 9.86
5 | TTTTCAAAAATATACACACACATAAATATATGTATA [CACACA_site777] | 9.8
6 | AAAAAAATTTTAAAATGTACAAATTTTAATATATAT [XGTACX_site7628] | 9.36
7 | TTTTTTATTTAAAGTAGTACTTTTTAGAAAACAAAA [XGTACX_site6759] | 9.05
8 | ATTCTAAATATGTATATACACACTTTTAATATTCAT [CACACA_site4118] | 9.89
9 | TTTATGAAACAGTGCACACATAAAAATAAATACATA [CACACA_site5631] | 9.88
10 | TTATTTTAAATTAACACATGCATAATATATGTATAT [TGCATGCA_site597] | 9.47
11 | CAATGTATTTAGAATACATGCATATTTTCATAATGT [TGCATGCA_site221] | 9.58
12 | AATTATGCACAAATCACACATATAAAATAAAAAGTG [CACACA_site4474] | 9.79
13 | AAATATTTATATGTTACACACTGTTTATAATTTTCT [CACACA_site4868] | 9.81
14 | ATATAGTTTCACATGTGTACATAAAAATACACTTGT [XGTACX_site3339] | 9.69
15 | ACAAAAATGAGATGGTGTACGCACAAATAAATAATA [XGTACX_site5221] | 10
16 | TTTAATTTATATAATGATATTAAGTTGGTTATTAGG [CACACA_negctrl_site329] | 9.35
17 | AAATCCATATAGGATTGTACATATATTATATATATA [XGTACX_site8818] | 9.59
18 | AATTCTTTACTATTCACACATATAAATATTCACTTT [CACACA_site4886] | 9.83
19 | CAAAATGTTAAAGATACACACCTAACAAACACAAAA [CACACA_site4685] | 10.5

Row | Sequence | gcPBM binding intensity (ln)
20 | ACATATATATTTATATGTACATATATTTATATATAT [XGTACX_site7469] | 9.64
21 | GTGGTATAAATTTTATGTACTTAATAACTCATTAAT [XGTACX_site5555] | 9.7
22 | AAAAATATTTAAAATACACACATATCTATAATATAT [CACACA_site7032] | 9.83
23 | AAAAAAAAAAAACACACACACACAAATACATACACA [CACACA_site706] | 10.7
24 | TACTTACCTATAATAACACACAAGAAAAAAATAAAA [CACACA_site6616] | 9.79
25 | AAATAATATCATAAATGTACATATATCATATTATTA [XGTACX_site5372] | 9.58
26 | TATAAAATTATGTGTACACAAATATAACTTTTCTTT [CACACA_site5554] | 9.64
27 | CATCCAAAAATATTATGTACTAAATTTGGATGTATT [XGTACX_site3954] | 9.56
28 | TATTCATATTCCAAGTGTACACATAAATCCCTAATA [XGTACX_site4131] | 9.52
29 | AAAATATTTCTTCTTTGTACTTATATATATTTAATT [XGTACX_site5446] | 9.67
30 | TTAATAATTATAACATGTACATACACTAAATTTTTT [XGTACX_site8953] | 9.67
31 | CAAATATATATTTATTGTACATATTGTTTATATGGT [XGTACX_site5246] | 9.68
32 | ATAATAACTTGTAAGGTGCATTTTATGTTTTCTTAA | 9.56
33 | AGAAATAATATTATTCAAGTATTTATTTAATTTTCA [GTGCAC_negctrl_site475] | 9.42
34 | AAATTATAGAATCATTGTACTTTTTTTTTTTTTTTT [XGTACX_site1280] | 9.45
35 | TATGCTTCAAAATTGTGTACATATATAATATATTAT [XGTACX_site6760] | 9.76
36 | TTTTTTTATATTATACGCACTAATATATATATATAT [XGTACX_negctrl_site40] | 9.73
37 | TAACACTTTTTTTTTCGTACATATATTATATATATA [XGTACX_site5470] | 9.65
38 | AAATAGACATAAAAAGGTACACAAATTGTGTATTAA [XGTACX_site527] | 9.93

Row | Sequence | gcPBM binding intensity (ln)
39 | TTTAATCAATGATTTAATGAAAAAAGCAAAAAAAAA [GTGCAC_negctrl_site213] | 9.46
40 | CGTTTGGTACACGTAGTGTTTTCGTTTGAATGTACC [GTGCAC_negctrl_site201] | 9.67
41 | TTTAATTTTCCCTTCACACATAATATATATCTGTAT [CACACA_site5370] | 9.78
42 | GACATATATAGCAATCGTACATATATTATAAAAGGT [XGTACX_site6891] | 9.83
43 | AAAAGGAACAGACACACACACATATATAAATATGTA [CACACA_site7656] | 10.5
44 | TATTAATTTATTTGTTGTACGTAAATATGCTTGTTT [XGTACX_site6591] | 9.75
45 | AAAAAAAAAAAAAATTGTACCCAAATATTTTTGTAG [XGTACX_site8303] | 9.42
46 | TTTTTATTAGGACATGCATACAAAATTAAAAAAAAT [TGCATGCA_site258] | 9.5
47 | ATATATATATTTAAGGTGCGATTTTGTTATATTTAA | 9.6
48 | TTATTAAAATATTAAAGTACAAAAAAAATAAATAAA [XGTACX_site6507] | 9.58
49 | AATTATATTAATATATAATAAAATAGGATGTTATTT [XGTACX_negctrl_site309] | 9.59
50 | GTATATAATTTATGTGCACACACTCCTATTTTTAGC [CACACA_site49] | 10.1
51 | CTTATTTTATGTTATACACACAAAGAAAAAAAATAA [CACACA_site2165] | 9.63
52 | TCAAATGTATATAATTGTACTTATCCTTTTCATTTT [XGTACX_site4879] | 9.75
53 | AAAAATTAGAAACACACACACATATATATATATATT [CACACA_site1042] | 10.3
54 | TTTTAAGTTTTTGAATGTACGTAATTTGTAAATTCT [XGTACX_site2448] | 9.6
55 | TATAAAATACTGTATCGATGGGGGAGGGCGCAGGGG [TGCATGCA_negctrl_site250] | 10.9
56 | AAAAAAAAAAAAAAAAAAAAAAAAAAAGATTATGAG [CACACA_negctrl_site1088] | 9.21
57 | AAGAACAAACAAAATAGTACAATATATATATATATA [XGTACX_site4258] | 10.4

From the supplement of paper PMC11417369
